Test results: PubChem BioAssay AID995 (National Center for Advancing Translational Sciences (NCATS), 2007)
The campaign covered roughly 72,000 compounds. About 710 (0.99%) were called active. Inconclusive results, whose numbers are uncertain, are shown with a selection of clear calls. Calls come from the whole dose curve; as a rule, active = well fitted inhibition curve with a large enough effect; inconclusive = small, poorly fitted or top-dose-only effect; inactive = no such curve, though single readings can be large or run the other way. No potency is given beside an inconclusive call; the fits are too rough.

Assay: qHTS Assay for Inhibitors of the ERK Signaling Pathway using a Homogeneous Screening Assay; note: nearly all actives have a fitted effect of over 55% in size
Conditions: HEK293-V1b, vasopressin-stimulated pERK AlphaScreen; activity, negative = inhibition: at 57.5 µM (top of the series) unless noted
In short: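 HEK293 cells stably expressing V1b receptor, seeded overnight in 1% FBS, were treated with compounds for 30 min at 37C, then stimulated 5 min with 25 nM vasopressin; phospho-ERK read by AlphaScreen SureFire after lysis.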
% is set by controls: 0 for no effect and ±100 for the full control effect; potency is the fitted concentration of half-maximal effect; tags give direction and shape of the fitted curve.

Compound | activity, negative = inhibition | Potency
Nc1cc(C(=O)O)[nH]c(=O)n1 | inactive: -2.44% [at 11.5 µM] | 
COc1ccccc1C(=O)Nc1cccc(NC(C)=O)c1 |  | inconclusive [inhibitor, partial curve]
CC(C)CC(=O)Nc1cccc(-c2cn3ccsc3n2)c1 |  | active: 15.8 µM
CC(C)OC(=O)CSc1nnc(Cc2ccccc2)n1C | inactive: 8.21% | 
COc1ccc(Cc2noc(-c3ccc(C)cc3)n2)cc1 | inactive: 93.5% | 
CCOC(=O)c1[nH]c(COC(=O)C2CC(=O)N(Cc3ccccc3)C2)c(C(=O)OCC)c1C (stereo not drawn) |  | inconclusive [inhibitor, single point]
CC(=O)c1ccc(NC(=O)CSC(C)C)cc1 |  | inconclusive [inhibitor, single point]
COc1ccccc1NC(=O)c1cccc(NC(=O)c2ccco2)c1 |  | inconclusive [inhibitor, partial curve]
Cc1ccc(C(=O)Nc2cccc(C(=O)NCc3ccccc3)c2)o1 |  | inconclusive [inhibitor, partial curve, poor fit]
CCOc1ccc2nc(NC(=O)CS(=O)(=O)c3ccccc3)sc2c1 |  | inconclusive [inhibitor, partial curve]
CN(C)c1ccc(C(c2ccc(N(C)C)cc2)c2ccc([N+](=O)[O-])cc2)cc1 |  | inconclusive [inhibitor, partial curve]
COCC(=O)N1CCC2(CCCN(C(c3ccccc3)c3ccccc3)C2)CC1 |  | inconclusive [inhibitor, partial curve]
O=C(Cn1c2c(c(-c3ccccc3)cc1=O)CCCC2)N1CCCCCC1 |  | inconclusive [inhibitor, single point]
Cc1ccc(C)c2[nH]c(=O)c(CN(Cc3ccco3)S(=O)(=O)c3ccc4c(c3)OCCO4)cc12 |  | inconclusive [inhibitor, full curve]
C=C(C)COc1ccc(-c2[nH]ncc2-c2ccccc2OC)c(O)c1 |  | inconclusive [inhibitor, single point]
CCC(=O)N1CCc2cc(S(=O)(=O)NCCC(=O)N3CCc4ccccc4C3)ccc21 |  | inconclusive [inhibitor, partial curve, poor fit]
COc1ccc(C)cc1NC(=O)c1cc2c(C)nc3ccccc3c2o1 | inactive: -17% | 
Oc1ccc(C=Nc2cccc3ncccc23)c(O)c1 |  | inconclusive [inhibitor, partial curve]
Cc1cc(C(=O)CSc2n[nH]c(N)n2)c(C)n1-c1cc(F)ccc1F |  | inconclusive [inhibitor, partial curve]
COc1ccc(-c2cc(NCc3ccccn3)n3ncnc3n2)cc1 |  | inconclusive [inhibitor, partial curve]
CCC(=O)c1ccc(OCC(O)Cn2c(C)nc3ccccc32)cc1 (stereo not drawn) |  | inconclusive [inhibitor, partial curve]
COc1ccc(N2C(=O)C(Cl)=C(N3CCCC3)C2=O)cc1 |  | inconclusive [inhibitor, single point]
CCCn1c(N2CCN(CC(=O)c3c(C)n(C)c4ccccc34)CC2)nc2c1c(=O)[nH]c(=O)n2C |  | inconclusive [inhibitor, full curve, poor fit]

Compound | activity, negative = inhibition | Potency
CCNS(=O)(=O)c1ccc(NC(=O)Nc2cccc(OC)c2)cc1 |  | inconclusive [inhibitor, single point]
CN(C)c1ccc(-c2nccc(Nc3ccc(F)cc3)n2)cc1 |  | inconclusive [inhibitor, single point]
O=C(Nc1ccccc1)N(Cc1ccc2c(c1)OCO2)Cc1nc2ccccc2c(=O)[nH]1 |  | inconclusive [inhibitor, single point]
NS(=O)(=O)c1ccc(CCNc2cc(=O)n(Cc3ccc(F)cc3)c(=O)[nH]2)cc1 | inactive: 21.8% | 
COCCOC(=O)C1=C(C)NC2=C(C(=O)CCC2)C1c1ccc(N(C)C)cc1 (stereo not drawn) |  | inconclusive [inhibitor, single point]
CCOc1ccc2nc(NS(=O)(=O)c3ccc4c(c3)n(C)c(=O)n4C)sc2c1 | inconclusive: -34.7% [inhibitor] | 
O=c1ccc(-c2ccccc2)n[nH]1 | inactive: -11.5% [at 11.5 µM] | 
Cc1ccc(C)c2[nH]c(=O)c(CN(Cc3ccco3)C(=O)Nc3ccccc3)cc12 |  | inconclusive [inhibitor, single point]
COc1ccccc1CNc1ccnc(-c2ccc3c(c2)OCO3)n1 |  | inconclusive [inhibitor, single point]
COc1ccc(Oc2ncc3ncc(=O)n(CCC#N)c3n2)cc1 | inactive: -18% | 
COc1cccc(C(=O)Nc2cccc(NC(C)=O)c2)c1 | inactive: 2.62% | 
O=C(CSc1nnc(COc2ccc3c(c2)CCCC3)o1)Nc1ccc(F)cc1 |  | inconclusive [inhibitor, partial curve]
Cc1cc(O)c2c(-c3ccccc3)cc(=O)oc2c1 |  | inconclusive [inhibitor, partial curve]
O=C(Nc1cccc(O)c1)c1ccc(Br)cc1 |  | inconclusive [inhibitor, single point]
CCC1=Nc2ccccc2-c2nnc(SC)nc2O1 |  | inconclusive [inhibitor, single point]
CCn1c2ccccc2c2nnc(SCc3ccccc3)nc21 | inactive: 13.8% | 
CCOC(=O)c1ccccc1NC(=O)CN1C(=O)CCS(=O)(=O)c2ccccc21 |  | inconclusive [inhibitor, full curve, poor fit]
COc1ccc(-c2nc3cnc(Nc4cccc(OC)c4)nc3n(C)c2=O)cc1 |  | inconclusive [inhibitor, partial curve]
O=C(Nc1ccc(Nc2ccccc2)cc1)N1CCOCC1 | inactive: -6.76% | 
C=CCc1c(C)nc(SC)nc1Nc1ccc(C(=O)O)cc1 |  | inconclusive [inhibitor, partial curve]
CCOC(=O)CCN1C(=O)[C@H]2[C@H]3[C@H](O)[C@H](O)C/C(=N/O[C@@H]4O[C@@H](COC(C)=O)[C@@H](OC(C)=O)[C@@H](OC(C)=O)[C@H]4OC(C)=O)[C@H]3CC[C@@H]2C1=O | inactive: 11.4% [at 11.5 µM] | 
COc1ccc(-c2nnc(SCc3ncc(-c4ccccc4)o3)o2)cc1 |  | inconclusive [inhibitor, single point]
CN(C)C=Nc1ncc2c([nH]c3ccccc32)c1C#N |  | active: 25.1 µM

Compound | activity, negative = inhibition | Potency
COc1ccc(OC)c(C(c2nnnn2CCC(C)C)N2CCN(C(=O)c3ccco3)CC2)c1 (stereo not drawn) | inactive: 21.2% | 
Cc1ccc(C(=O)Nc2ccccc2N2CCN(C(=O)C(C)C)CC2)cc1 | inactive: -2.35% | 
O=c1cc(-c2ccccc2)oc2c(O)c(O)ccc12 |  | inconclusive [inhibitor, partial curve]
Cc1nn(Cc2nc(-c3cccs3)no2)c(C)c1Br | inactive: 21.7% | 
CCOC(=O)CSc1nc2sc3c(c2c(=O)n1CC)CC(C)(C)OC3 |  | inconclusive [inhibitor, partial curve]
COc1ccc(NC2CS(=O)(=O)CC2NCc2ccco2)cc1 (stereo not drawn) |  | inconclusive [inhibitor, partial curve]
CCN(CC)c1ccc(NC(=O)COc2ccc(C)cc2)cc1 |  | inconclusive [inhibitor, partial curve]
COc1cccc(-c2nc(NCCc3c[nH]c4ccc(OC)cc34)c3ccccc3n2)c1 |  | inconclusive [inhibitor, partial curve]
COC(=O)COc1ccc(-c2nn(C)c(=O)c3ccccc23)cc1 |  | inconclusive [inhibitor, single point]
COc1ccc(Cl)cc1NS(=O)(=O)c1ccc(S(=O)(=O)N2CCCC2)cc1 |  | active: 25.1 µM
O=c1cc(O)cc(/C=C\c2ccc(O)c(O)c2)o1 |  | inconclusive [inhibitor, partial curve]
CN(C)CCCN1c2ccccc2Sc2ccc(C(F)(F)F)cc21 |  | inconclusive [inhibitor, single point]
COc1cc(Br)cc2cc(C(=O)N3CCN(C(=O)c4ccco4)CC3)c(=O)oc12 |  | inconclusive [inhibitor, partial curve]
O=C(CC1SC(=Nc2ccccc2)N(CCCO)C1=O)Nc1ccc(Cl)cc1 (stereo not drawn) |  | inconclusive [inhibitor, partial curve]
Cc1nc(NCC2CCCO2)c2oc3ccccc3c2n1 (stereo not drawn) |  | inconclusive [inhibitor, single point]
COc1ccc(-c2cc(-c3cc(F)ccc3O)[nH]n2)cc1OC |  | active: 31.6 µM
CCOc1ccc2nc(NC(=O)CSc3nc4c(c(=O)n(C)c(=O)n4C)n3C(C)C)sc2c1 |  | inconclusive [inhibitor, partial curve]
COC(=O)c1ccc2c(c1)S(=O)(=O)NC(=NCc1ccco1)S2 |  | inconclusive [inhibitor, partial curve]
Cc1cc(C)cc(-c2nnc(SCC(=O)N3CCN(C(=O)c4ccco4)CC3)o2)c1 |  | inconclusive [inhibitor, single point]
CCSC1=C(C#N)C(c2ccccc2Cl)CC(=O)N1 (stereo not drawn) |  | inconclusive [inhibitor, partial curve]
Cn1cccc1Cc1nnc(SCC(=O)Nc2nccs2)n1CCc1ccccc1 |  | active: 15.8 µM
O=C(CCc1ccccc1)Nc1cc(Cl)ccc1O |  | inconclusive [inhibitor, single point]
